# Source: the supplement of paper PMC8728848
# The list shows a part of the results.
# B1: ABA (Agaricus bisporus), Q00022 (protein)
# chain: MTYTISIRVYQTTPKGFFRPVERTNWKYANGGTWDEVRGEYVLTMGGSGTSGSLRFVSSDTDESFVATFGVHNYKRWCDIVTNLTNEQTALVINQEYYGVPIRDQARENQLTSYNVANAKGRRFAIEYTVTEGDNLKANLIIG
# Columns and labels:
# Experiment in all cases: glycan array binding signal (z-score within array); higher = stronger binding
# Conditions in all cases: glycan notation: IUPAC condensed, linker removed
# [1] = target: GlcNAc(b1-2)[GlcNAc(b1-4)]Man(a1-3)[GlcNAc(b1-4)][GlcNAc(b1-2)[GlcNAc(b1-6)]Man(a1-6)]Man(b1-4)GlcNAc(b1-4)GlcNAc
# How it was run: (§1)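 The binding signal is a Z-score computed within each array. Data were drawn from 3228 arrays in the Consortium for Functional Glycomics database, restricted to those with a known protein sequence. Scores were averaged over arrays of the same protein sequence at different concentrations or buffers, and over linkers, and negative values can be taken as non-binding.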
# [2] = target: GlcNAc(b1-2)[GlcNAc(b1-4)]Man(a1-3)[GlcNAc(b1-4)][GlcNAc(b1-2)[GlcNAc(b1-6)]Man(a1-6)]Man(b1-4)GlcNAc(b1-4)[Fuc(a1-6)]GlcNAc
# How it was run: as §1
# [3] = target: GlcNAc(b1-2)[GlcNAc(b1-6)]Man(a1-6)[GlcNAc(b1-2)Man(a1-3)]Man(b1-4)GlcNAc(b1-4)GlcNAc
# How it was run: as §1
# [4] = target: GlcNAc(b1-2)[GlcNAc(b1-6)]Man(a1-6)[GlcNAc(b1-2)Man(a1-3)]Man(b1-4)GlcNAc(b1-4)[Fuc(a1-6)]GlcNAc
# How it was run: as §1
# [5] = target: GlcNAc(b1-2)[GlcNAc(b1-6)]Man(a1-6)[GlcNAc(b1-4)][GlcNAc(b1-2)Man(a1-3)]Man(b1-4)GlcNAc(b1-4)GlcNAc
# How it was run: as §1
# GlcNAc(b1-3)Fuc = target: GlcNAc(b1-3)Fuc
# How it was run: as §1
# GlcNAc(b1-3)Gal = target: GlcNAc(b1-3)Gal
# How it was run: as §1
# [6] = target: GlcNAc(b1-3)Gal(b1-3)GalNAc
# How it was run: as §1
# GlcNAc(b1-3)Gal(b1-4)Glc = target: GlcNAc(b1-3)Gal(b1-4)Glc
# How it was run: as §1
# [7] = target: GlcNAc(b1-3)Gal(b1-4)GlcNAc
# How it was run: as §1
# [8] = target: GlcNAc(b1-3)Gal(b1-4)GlcNAc(b1-2)Man(a1-3)[GlcNAc(b1-3)Gal(b1-4)GlcNAc(b1-2)Man(a1-6)]Man(b1-4)GlcNAc(b1-4)GlcNAc
# How it was run: as §1
# [9] = target: GlcNAc(b1-3)Gal(b1-4)GlcNAc(b1-2)Man(a1-3)[GlcNAc(b1-3)Gal(b1-4)GlcNAc(b1-2)Man(a1-6)]Man(b1-4)GlcNAc(b1-4)[Fuc(a1-6)]GlcNAc
# How it was run: as §1
# [10] = target: GlcNAc(b1-3)Gal(b1-4)GlcNAc(b1-2)[GlcNAc(b1-3)Gal(b1-4)GlcNAc(b1-6)]Man(a1-6)[GlcNAc(b1-3)Gal(b1-4)GlcNAc(b1-2)Man(a1-3)]Man(b1-4)GlcNAc(b1-4)GlcNAc
# How it was run: as §1
# [11] = target: GlcNAc(b1-3)Gal(b1-4)GlcNAc(b1-3)Gal(b1-4)GlcNAc
# How it was run: as §1
# [12] = target: GlcNAc(b1-3)Gal(b1-4)GlcNAc(b1-3)Gal(b1-4)GlcNAc(b1-2)Man(a1-3)[GlcNAc(b1-3)Gal(b1-4)GlcNAc(b1-3)Gal(b1-4)GlcNAc(b1-2)Man(a1-6)]Man(b1-4)GlcNAc(b1-4)GlcNAc
# How it was run: as §1
# [13] = target: GlcNAc(b1-3)Gal(b1-4)GlcNAc(b1-3)Gal(b1-4)GlcNAc(b1-2)Man(a1-3)[GlcNAc(b1-3)Gal(b1-4)GlcNAc(b1-3)Gal(b1-4)GlcNAc(b1-2)Man(a1-6)]Man(b1-4)GlcNAc(b1-4)[Fuc(a1-6)]GlcNAc
# How it was run: as §1
# [14] = target: GlcNAc(b1-3)Gal(b1-4)GlcNAc(b1-3)Gal(b1-4)GlcNAc(b1-2)[GlcNAc(b1-3)Gal(b1-4)GlcNAc(b1-3)Gal(b1-4)GlcNAc(b1-6)]Man(a1-6)[GlcNAc(b1-3)Gal(b1-4)GlcNAc(b1-3)Gal(b1-4)GlcNAc(b1-2)Man(a1-3)]Man(b1-4)GlcNAc(b1-4)[Fuc(a1-6)]GlcNAc
# How it was run: as §1
# [15] = target: GlcNAc(b1-3)Gal(b1-4)GlcNAc(b1-3)Gal(b1-4)GlcNAc(b1-3)Gal(b1-4)GlcNAc(b1-2)Man(a1-3)[GlcNAc(b1-3)Gal(b1-4)GlcNAc(b1-3)Gal(b1-4)GlcNAc(b1-3)Gal(b1-4)GlcNAc(b1-2)Man(a1-6)]Man(b1-4)GlcNAc(b1-4)GlcNAc
# How it was run: as §1
# [16] = target: GlcNAc(b1-3)Gal(b1-4)GlcNAc(b1-3)Gal(b1-4)GlcNAc(b1-3)Gal(b1-4)GlcNAc(b1-2)Man(a1-3)[GlcNAc(b1-3)Gal(b1-4)GlcNAc(b1-3)Gal(b1-4)GlcNAc(b1-3)Gal(b1-4)GlcNAc(b1-2)Man(a1-6)]Man(b1-4)GlcNAc(b1-4)[Fuc(a1-6)]GlcNAc
# How it was run: as §1
# [17] = target: GlcNAc(b1-3)Gal(b1-4)GlcNAc(b1-3)Gal(b1-4)GlcNAc(b1-3)Gal(b1-4)GlcNAc(b1-2)[GlcNAc(b1-3)Gal(b1-4)GlcNAc(b1-3)Gal(b1-4)GlcNAc(b1-3)Gal(b1-4)GlcNAc(b1-6)]Man(a1-6)[GlcNAc(b1-3)Gal(b1-4)GlcNAc(b1-3)Gal(b1-4)GlcNAc(b1-3)Gal(b1-4)GlcNAc(b1-2)Man(a1-3)]Man(b1-4)GlcNAc(b1-4)[Fuc(a1-6)]GlcNAc
# How it was run: as §1
# [18] = target: GlcNAc(b1-3)Gal(b1-4)GlcNAc(b1-3)Gal(b1-4)GlcNAc(b1-3)Gal(b1-4)GlcNAc(b1-3)Gal(b1-4)GlcNAc(b1-2)Man(a1-3)[GlcNAc(b1-3)Gal(b1-4)GlcNAc(b1-3)Gal(b1-4)GlcNAc(b1-3)Gal(b1-4)GlcNAc(b1-3)Gal(b1-4)GlcNAc(b1-2)Man(a1-6)]Man(b1-4)GlcNAc(b1-4)GlcNAc
# How it was run: as §1
# [19] = target: GlcNAc(b1-3)Gal(b1-4)GlcNAc(b1-3)Gal(b1-4)GlcNAc(b1-3)Gal(b1-4)GlcNAc(b1-3)Gal(b1-4)GlcNAc(b1-2)Man(a1-3)[GlcNAc(b1-3)Gal(b1-4)GlcNAc(b1-3)Gal(b1-4)GlcNAc(b1-3)Gal(b1-4)GlcNAc(b1-3)Gal(b1-4)GlcNAc(b1-2)Man(a1-6)]Man(b1-4)GlcNAc(b1-4)[Fuc(a1-6)]GlcNAc
# How it was run: as §1
# [20] = target: GlcNAc(b1-3)Gal(b1-4)GlcNAc(b1-3)Gal(b1-4)GlcNAc(b1-3)Gal(b1-4)GlcNAc(b1-3)Gal(b1-4)GlcNAc(b1-2)[GlcNAc(b1-3)Gal(b1-4)GlcNAc(b1-3)Gal(b1-4)GlcNAc(b1-3)Gal(b1-4)GlcNAc(b1-3)Gal(b1-4)GlcNAc(b1-6)]Man(a1-6)[GlcNAc(b1-3)Gal(b1-4)GlcNAc(b1-3)Gal(b1-4)GlcNAc(b1-3)Gal(b1-4)GlcNAc(b1-3)Gal(b1-4)GlcNAc(b1-2)Man(a1-3)]Man(b1-4)GlcNAc(b1-4)[Fuc(a1-6)]GlcNAc
# How it was run: as §1
# [21] = target: GlcNAc(b1-3)Gal(b1-4)GlcNAc(b1-3)Gal(b1-4)GlcNAc(b1-3)GalNAc
# How it was run: as §1
# [22] = target: GlcNAc(b1-3)Gal(b1-4)GlcNAc(b1-3)GalNAc
# How it was run: as §1
# [23] = target: GlcNAc(b1-3)Gal(b1-4)GlcNAc(b1-3)[GlcNAc(b1-3)Gal(b1-4)GlcNAc(b1-3)]GalNAc
# How it was run: as §1
# [24] = target: GlcNAc(b1-3)Gal(b1-4)GlcNAc(b1-6)[Gal(b1-3)]GalNAc
# How it was run: as §1
# [25] = target: GlcNAc(b1-3)Gal(b1-4)GlcNAc(b1-6)[GlcNAc(b1-3)Gal(b1-3)]GalNAc
# How it was run: as §1
# [26] = target: GlcNAc(b1-3)Gal(b1-4)GlcNAc(b1-6)[GlcNAc(b1-3)]Gal(b1-4)GlcNAc
# How it was run: as §1
# GlcNAc(b1-3)GalNAc = target: GlcNAc(b1-3)GalNAc
# How it was run: as §1
# GlcNAc(b1-3)Man = target: GlcNAc(b1-3)Man
# How it was run: as §1
# [27] = target: GlcNAc(b1-3)[GlcNAc(b1-4)][GlcNAc(b1-6)]GlcNAc
# How it was run: as §1
# [28] = target: GlcNAc(b1-3)[GlcNAc(b1-6)]Gal(b1-4)GlcNAc
# How it was run: as §1
# [29] = target: GlcNAc(b1-3)[GlcNAc(b1-6)]GalNAc
# How it was run: as §1
# [30] = target: GlcNAc(b1-3)[GlcNAc(b1-6)]GlcNAc(b1-4)GlcNAc
# How it was run: as §1
# [31] = target: GlcNAc(b1-4)Gal(b1-4)GlcNAc
# How it was run: as §1
# GlcNAc(b1-4)GlcNAc = target: GlcNAc(b1-4)GlcNAc
# How it was run: as §1
# [32] = target: GlcNAc(b1-4)GlcNAc(b1-4)GlcNAc
# How it was run: as §1
# [33] = target: GlcNAc(b1-4)GlcNAc(b1-4)GlcNAc(b1-4)GlcNAc(b1-4)GlcNAc
# How it was run: as §1
# [34] = target: GlcNAc(b1-4)GlcNAc(b1-4)GlcNAc(b1-4)GlcNAc(b1-4)GlcNAc(b1-4)GlcNAc
# How it was run: as §1
# [35] = target: GlcNAc(b1-4)[GlcNAc(b1-6)]GalNAc
# How it was run: as §1
# [36] = target: GlcNAc(b1-6)Gal(b1-4)GlcNAc
# How it was run: as §1
# GlcNAc(b1-6)GalNAc = target: GlcNAc(b1-6)GalNAc
# How it was run: as §1
# [37] = target: GlcNAc6S(b1-3)Gal(b1-4)GlcNAc
# How it was run: as §1
# Kdn(a2-3)Gal(b1-3)GalNAc = target: Kdn(a2-3)Gal(b1-3)GalNAc
# How it was run: as §1
binder,measurement,setting,value
B1,glycan array binding signal (z-score),[1],-0.099
same,glycan array binding signal (z-score),[2],-0.287
same,glycan array binding signal (z-score),[3],2.04
same,glycan array binding signal (z-score),[4],2.45
same,glycan array binding signal (z-score),[5],-0.015
same,glycan array binding signal (z-score),GlcNAc(b1-3)Fuc,-0.174
same,glycan array binding signal (z-score),GlcNAc(b1-3)Gal,-0.207
same,glycan array binding signal (z-score),[6],2.1
same,glycan array binding signal (z-score),GlcNAc(b1-3)Gal(b1-4)Glc,-0.213
same,glycan array binding signal (z-score),[7],-0.103
same,glycan array binding signal (z-score),[8],0.536
same,glycan array binding signal (z-score),[9],1.08
same,glycan array binding signal (z-score),[10],-0.234
same,glycan array binding signal (z-score),[11],0.001
same,glycan array binding signal (z-score),[12],2.15
same,glycan array binding signal (z-score),[13],1.39
same,glycan array binding signal (z-score),[14],0.382
same,glycan array binding signal (z-score),[15],1.01
same,glycan array binding signal (z-score),[16],1.22
same,glycan array binding signal (z-score),[17],0.984
same,glycan array binding signal (z-score),[18],2.07
same,glycan array binding signal (z-score),[19],1.76
same,glycan array binding signal (z-score),[20],1.48
same,glycan array binding signal (z-score),[21],-0.202
same,glycan array binding signal (z-score),[22],0.272
same,glycan array binding signal (z-score),[23],0.316
same,glycan array binding signal (z-score),[24],0.941
same,glycan array binding signal (z-score),[25],2.74
same,glycan array binding signal (z-score),[26],0.002
same,glycan array binding signal (z-score),GlcNAc(b1-3)GalNAc,-0.068
same,glycan array binding signal (z-score),GlcNAc(b1-3)Man,0.344
same,glycan array binding signal (z-score),[27],-0.238
same,glycan array binding signal (z-score),[28],-0.09
same,glycan array binding signal (z-score),[29],-0.079
same,glycan array binding signal (z-score),[30],-0.16
same,glycan array binding signal (z-score),[31],-0.328
same,glycan array binding signal (z-score),GlcNAc(b1-4)GlcNAc,-0.236
same,glycan array binding signal (z-score),[32],-0.093
same,glycan array binding signal (z-score),[33],-0.172
same,glycan array binding signal (z-score),[34],-0.05
same,glycan array binding signal (z-score),[35],-0.251
same,glycan array binding signal (z-score),[36],-0.227
same,glycan array binding signal (z-score),GlcNAc(b1-6)GalNAc,0.053
same,glycan array binding signal (z-score),[37],-0.026
same,glycan array binding signal (z-score),Kdn(a2-3)Gal(b1-3)GalNAc,0.099
